Data reported in paper PMC3112535 (Nature Communications, 2011).

Molecular target: yeast histone H4 (S. cerevisiae, UniProt P02309)
Test: SEC-MALS

binding result: binds
B1: Cse4 […] (domain or fragment)
chain: not shown
